Measured values from publication PMC4336329 (PLoS ONE, 2015).
Screen size: about 310,000 compounds; about 2,200 (0.71%) showed an effect of 50% or more. Effects have a minus sign here. The list shows a part of the results.

target: human ether-à-go-go-related gene (hERG) potassium channel (human, UniProt Q12809); test: primary screen, population patch clamp on CHO cells stably expressing hERG
Sequence (Q12809 whole entry, looked up): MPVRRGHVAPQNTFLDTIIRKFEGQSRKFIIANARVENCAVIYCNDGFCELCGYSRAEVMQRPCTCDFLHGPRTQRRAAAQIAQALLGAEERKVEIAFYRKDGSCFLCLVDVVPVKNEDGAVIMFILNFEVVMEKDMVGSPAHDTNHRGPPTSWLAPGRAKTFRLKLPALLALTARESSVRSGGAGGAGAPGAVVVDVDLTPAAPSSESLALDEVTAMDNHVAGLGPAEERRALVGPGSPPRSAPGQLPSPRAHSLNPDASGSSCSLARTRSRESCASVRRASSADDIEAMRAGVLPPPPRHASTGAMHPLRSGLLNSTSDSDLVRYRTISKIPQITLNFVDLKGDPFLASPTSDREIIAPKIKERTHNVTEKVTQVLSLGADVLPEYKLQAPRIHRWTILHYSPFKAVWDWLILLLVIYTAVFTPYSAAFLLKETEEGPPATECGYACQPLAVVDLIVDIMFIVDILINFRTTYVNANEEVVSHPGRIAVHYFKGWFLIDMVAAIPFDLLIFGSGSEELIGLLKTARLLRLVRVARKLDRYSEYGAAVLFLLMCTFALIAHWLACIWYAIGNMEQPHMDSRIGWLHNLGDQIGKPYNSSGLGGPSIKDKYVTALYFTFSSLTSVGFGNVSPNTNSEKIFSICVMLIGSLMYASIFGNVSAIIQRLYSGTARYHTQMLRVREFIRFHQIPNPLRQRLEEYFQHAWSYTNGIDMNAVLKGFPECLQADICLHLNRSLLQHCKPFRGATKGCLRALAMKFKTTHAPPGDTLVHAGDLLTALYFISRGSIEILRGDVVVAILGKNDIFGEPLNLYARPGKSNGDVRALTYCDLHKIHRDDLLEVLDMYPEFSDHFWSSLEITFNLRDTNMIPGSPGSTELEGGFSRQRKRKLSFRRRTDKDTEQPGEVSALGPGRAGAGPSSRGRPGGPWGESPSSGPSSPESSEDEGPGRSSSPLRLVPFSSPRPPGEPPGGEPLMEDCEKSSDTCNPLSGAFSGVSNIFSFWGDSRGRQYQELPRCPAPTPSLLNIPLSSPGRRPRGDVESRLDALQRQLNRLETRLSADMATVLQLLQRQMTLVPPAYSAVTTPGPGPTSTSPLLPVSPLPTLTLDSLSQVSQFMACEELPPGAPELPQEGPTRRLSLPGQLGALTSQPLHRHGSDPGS

Row | SMILES | hERG current change (%, negative = inhibition) at 1uM [%]
1 | O=C(O)C1CSC(c2ccncc2)N1 (centres unmarked) | 17.4
2 | O=C(CN1CCN(C(=O)C2CCCO2)CC1)Nc1cc(C(F)(F)F)ccc1Cl (centres unmarked) | -2.84
3 | CSc1ccc(C2c3[nH]c4ccccc4c3CCN2C(=O)c2ccnn2C)cc1 (centres unmarked) | 8.79
4 | Cc1cccc(N2N=C(C(=O)O)CCC2=O)c1 | 7.57
5 | CCC(=O)Nc1ccc(NC(=O)c2ccco2)cc1 | 10.9
6 | COC(=O)N(NC(=O)C(O)(C(C)C)C(C)C)c1ccccc1 | 14.5
7 | O=C1CC(O)(C(F)(F)F)Oc2c1ccc1ccccc21 (centres unmarked) | 12.7
8 | COc1ccc(C(=O)N2CCCc3ccccc32)cc1Br | 7.06
9 | CCOC(=O)c1c2c(n(C)c1C)C(=O)C(=O)c1ccc(Br)cc1-2 | 12.4
10 | CCOc1ccc(NC(=O)c2ccc(NCC(=O)N3CCCCCC3)cc2)cc1 | 5.7
11 | COc1ccc(OCCn2c(=N)n(CCO)c3ccccc32)cc1.Cl | 3.34
12 | CC(C)c1ccc(C2NC(=O)NC3=C2CCc2ccccc23)cc1 (centres unmarked) | -7.39
13 | Cc1ccsc1C(=O)C1CCCN(Cc2ccc(O)cc2)C1 (centres unmarked) | -0.745
14 | COc1ccc(NC(=O)CSc2sc3c(O)cc(=O)[nH]c3c2C#N)c(OC)c1 | 12.2
15 | COc1nc(-c2ccccc2)ccc1-c1noc(C)n1 | 10.8
16 | CCOC(=O)c1c(NC(=O)COC(=O)CNC(=O)c2ccco2)sc(C)c1C | -7.43
17 | Cc1nc2ccccc2c(=O)n1-c1cccc(C(F)(F)F)c1 | -2.22
18 | OC(COc1ccc2c(c1)CCC2)CN1CCN(c2ccccc2F)CC1 (centres unmarked) | 5.87
19 | C/C(=N\Nc1nc(-c2cc(C)ccc2C)cs1)c1cc2ccccc2oc1=O | 15.1
20 | Cc1cc(=O)n2nc(N3CCCC(C(=O)NCc4ccc5c(c4)OCO5)C3)sc2n1 (centres unmarked) | -5.95
21 | CCCCN(CC)CCCNC(=O)c1cc2cc3ccc(C)cc3nc2o1 | -10.1
22 | O=C(COC(=O)c1cnccn1)c1ccc(OC(=O)c2ccccc2)cc1 | 10.9

Row | SMILES | hERG current change (%, negative = inhibition) at 1uM [%]
23 | Cc1conc1NC(c1cccs1)c1ccc2cccnc2c1O (centres unmarked) | 16.1
24 | CCC(CC)C1C(C#N)=C(N)Oc2n[nH]c(C)c21 (centres unmarked) | 4.08
25 | COC(=O)c1c(-c2c(Cl)cccc2Cl)noc1NC(=O)NN1CCCCC1 | 10.9
26 | COc1cc2cc(Oc3ccc4ccc(=O)oc4c3)c(=O)oc2cc1OC(C)=O | 8.43
27 | O=C1C2C(C(=O)N1/N=C/c1ccco1)C1C=CC2C12CC2 (centres unmarked) | 7.68
28 | COc1ccc(-n2nc(C(=O)NCC(=O)NCCC3=CCCCC3)c3ccccc3c2=O)cc1 | 18.9
29 | CCc1cc2c3c(c(=O)oc2cc1OCC(=O)OC)CCCC3 | 14.9
30 | Oc1nc(Nc2cccc(Cl)c2)sc1/C=C1\C=Nc2ccccc21 | 9.18
31 | O=C(Nc1ccon1)c1nc[nH]c1C(=O)NCc1ccccc1 | 15.5
32 | COCCN(C(=O)COC(=O)c1ccc2c(c1)OCCO2)c1c(N)n(Cc2ccccc2)c(=O)[nH]c1=O | 4.05
33 | O=C(Nc1cccc(F)c1)NC1CC2CCCC(C1)N2C1CC1 (centres unmarked) | 4.85
34 | CC(C)(CC(=O)O)CC(=O)Nc1ccc2c(c1)ncn2CCc1ccccc1 | 13.6
35 | CC(C)(C)c1csc(NNC(=O)c2ccc(Br)cc2)n1 | 11.2
36 | CCOC(=O)CC1C(=O)NCCN1S(=O)(=O)c1ccc(Br)cc1 (centres unmarked) | 6.26
37 | Cc1ccc(CNC(=O)c2ccc(CNc3c(N4CCCC4)c(=O)c3=O)cc2)cc1 | 3.83
38 | COc1ccccc1Cc1nc(-c2ccc(C)cc2)no1 | 3.86
39 | OCC1(CCc2ccccc2)CCN(Cc2ccc3nsnc3c2)CC1 | -69.1
40 | CC(NC(=O)CN1CCN(S(=O)(=O)c2ccc(Br)cc2)CC1)c1ccccc1 (centres unmarked) | 4.1
41 | CCCOc1ccc(C(=O)Nc2ccc(N3CCN(C(=O)c4ccco4)CC3)cc2)cc1 | 20.6
42 | COc1ccc(-c2cc(C(=O)OCC(=O)c3c(N)n(C)c(=O)n(C)c3=O)c3ccccc3n2)cc1 | 13.3
43 | O=C(Nc1ccc(-c2cn3c(n2)SCC3)cc1)c1ccco1 | 12.1
44 | CN(C)CCCN(C(=O)c1ccc(S(=O)(=O)N(C)C2CCCCC2)cc1)c1nc2ccc(Br)cc2s1.Cl | -7.7
